Publication PMC4336329 (PLoS ONE, 2015)
Out of some 310,000 compounds screened, about 14,000 (4.5%) showed an effect of 50% or more. Effects have a minus sign here. The list shows a part of the results.

target: human ether-à-go-go-related gene (hERG) potassium channel (human, UniProt Q12809); assay: primary screen, population patch clamp on CHO cells stably expressing hERG
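Further: peak tail current of the secondary pulse compared with the same well before compound.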

Sequence of human ether-à-go-go-related gene (hERG) potassium channel (Q12809 whole entry, looked up): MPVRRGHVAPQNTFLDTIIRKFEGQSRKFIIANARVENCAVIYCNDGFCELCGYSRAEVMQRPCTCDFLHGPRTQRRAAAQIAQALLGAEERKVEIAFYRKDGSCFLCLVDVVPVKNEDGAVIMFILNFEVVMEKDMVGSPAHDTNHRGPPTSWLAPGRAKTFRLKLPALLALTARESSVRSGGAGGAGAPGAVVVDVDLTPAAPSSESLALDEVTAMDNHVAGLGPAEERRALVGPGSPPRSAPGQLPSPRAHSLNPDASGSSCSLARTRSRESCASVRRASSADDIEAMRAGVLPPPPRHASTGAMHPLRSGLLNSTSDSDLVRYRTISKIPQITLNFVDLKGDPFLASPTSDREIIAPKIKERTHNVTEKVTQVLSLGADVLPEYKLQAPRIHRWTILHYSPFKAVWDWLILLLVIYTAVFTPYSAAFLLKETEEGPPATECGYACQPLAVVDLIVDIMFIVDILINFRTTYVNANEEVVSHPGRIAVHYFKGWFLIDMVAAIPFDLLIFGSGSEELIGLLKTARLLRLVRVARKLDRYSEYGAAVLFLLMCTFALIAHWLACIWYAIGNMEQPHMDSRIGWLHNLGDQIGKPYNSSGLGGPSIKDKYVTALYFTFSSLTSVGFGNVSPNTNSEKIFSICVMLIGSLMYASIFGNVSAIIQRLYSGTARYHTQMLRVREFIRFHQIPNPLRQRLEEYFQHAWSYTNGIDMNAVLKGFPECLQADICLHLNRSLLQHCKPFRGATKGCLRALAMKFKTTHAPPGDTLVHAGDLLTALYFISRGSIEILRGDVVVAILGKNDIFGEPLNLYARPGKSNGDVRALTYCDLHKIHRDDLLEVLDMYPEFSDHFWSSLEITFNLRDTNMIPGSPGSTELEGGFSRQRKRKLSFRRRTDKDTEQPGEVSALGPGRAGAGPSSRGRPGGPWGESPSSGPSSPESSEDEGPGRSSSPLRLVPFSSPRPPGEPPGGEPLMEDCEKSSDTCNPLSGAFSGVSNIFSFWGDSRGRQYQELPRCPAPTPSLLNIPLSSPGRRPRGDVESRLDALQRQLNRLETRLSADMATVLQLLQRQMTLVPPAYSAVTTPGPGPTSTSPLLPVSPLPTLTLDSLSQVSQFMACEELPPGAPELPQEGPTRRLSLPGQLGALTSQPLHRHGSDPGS

With CC(=O)OC1C2CCC1C([NH+]1CCCC1)CC2.[Cl-] (stereo not drawn) as the molecule, how does the “hERG current change (%, negative = inhibition) at 10uM” value read?
The value was -2.35%.

With CCOc1ccc(CNC(=O)Cn2ccc3cc(S(=O)(=O)N4CCCC4)ccc32)cc1 as the molecule, how does the “hERG current change (%, negative = inhibition) at 10uM” value read?
The value was 6.6%.

With COc1ccc(C2=NS(=O)(=O)N(C)C(C(=O)Nc3cc(OC)c(OC)c(OC)c3)=C2)cc1 as the molecule, how does the “hERG current change (%, negative = inhibition) at 10uM” value read?
The value was 10.5%.

How did the “hERG current change (%, negative = inhibition) at 10uM” value turn out when CN(C)c1nc(NCc2ccccc2)nc(SCC(N)=O)n1 was run?
Its value is 7.76%.

With CC1CCCN(C(=O)c2ccc(CNc3c(N4CCCCC4)c(=O)c3=O)cc2)C1 (stereo not drawn) as the molecule, how does the “hERG current change (%, negative = inhibition) at 10uM” value read?
The value was 4.19%.

How did the “hERG current change (%, negative = inhibition) at 10uM” value turn out when CCOc1ccc(S(=O)(=O)N(C)c2ccc(OCC(=O)NCc3cccnc3)cc2)cc1 was run?
The value was -21.5%.

Which “hERG current change (%, negative = inhibition) at 10uM” value does the source give for Cn1c(SCC(=O)Nc2sccc2C#N)nnc1-c1ccccc1 here?
Its value is -2.65%.

For Cc1ccccc1N1C(=O)NC(=O)/C(=C\c2cc(C)n(C)c2C)C1=O, which “hERG current change (%, negative = inhibition) at 10uM” value is on record?
Its value is -3.79%.

O=C(Nc1ccccc1N1CCOCC1)c1ccc2ccccc2c1 was tested. Which “hERG current change (%, negative = inhibition) at 10uM” value did it give?
Its value is -26.2%.

How did the “hERG current change (%, negative = inhibition) at 10uM” value turn out when Cc1nnc(SCC(=O)Nc2ccccc2F)n1-c1ccc(F)cc1 was run?
Its value is -13%.

COc1ccc(C)cc1S(=O)(=O)N(C)CC(=O)N1CCC(C(N)=O)CC1 was tested. Which “hERG current change (%, negative = inhibition) at 10uM” value did it give?
The value was 21.5%.

Which “hERG current change (%, negative = inhibition) at 10uM” value does the source give for CC(=O)Nc1ccc(C2=NNC(=Nc3cccc(S(=O)(=O)N(C)C)c3)SC2)cc1 here?
The value was 6.72%.

Which “hERG current change (%, negative = inhibition) at 10uM” value does the source give for COc1ccc(CNC(=O)C2CCC(CNc3c(N4CCCCC4)c(=O)c3=O)CC2)cc1 (stereo not drawn) here?
The value was 16.6%.

Which “hERG current change (%, negative = inhibition) at 10uM” value does the source give for Cc1noc(C)c1CSCC(=O)Nc1ccc(S(=O)(=O)C(F)F)cc1 here?
Its value is -29.4%.

COc1ccccc1CNC(=O)c1ccc(OC(C)C)cc1 was tested. Which “hERG current change (%, negative = inhibition) at 10uM” value did it give?
Its value is 17.6%.

COc1ccc(NS(=O)(=O)c2cccc(N/C(=N\S(=O)(=O)c3ccccc3)c3ccc(F)cc3)c2)cc1 was tested. Which “hERG current change (%, negative = inhibition) at 10uM” value did it give?
Its value is 3.23%.

How did the “hERG current change (%, negative = inhibition) at 10uM” value turn out when COC(=O)C1=C(C)OC(N)=C(C#N)C1C1CCCCC1 (stereo not drawn) was run?
The value was 10.6%.

With COc1ccc(-c2noc(N(C)CC(=O)Nc3cccc(C(F)(F)F)c3)n2)cc1 as the molecule, how does the “hERG current change (%, negative = inhibition) at 10uM” value read?
Its value is 11.4%.

How did the “hERG current change (%, negative = inhibition) at 10uM” value turn out when COc1ccc(N2C(=O)C3CCCN3C2=S)cc1 (stereo not drawn) was run?
Its value is 23.8%.

With COc1cccc(-c2cc(=O)c3cc(NC(=O)c4ccc(Cl)cc4)ccc3[nH]2)c1 as the molecule, how does the “hERG current change (%, negative = inhibition) at 10uM” value read?
The value was 14%.

For O=C(NCCc1ccccc1Cl)C1CCC(=O)N(CC2CCCCC2)C1 (stereo not drawn), which “hERG current change (%, negative = inhibition) at 10uM” value is on record?
Its value is -16.7%.

With COc1cc(NC(=O)C2CCN(c3cnccn3)CC2)cc(OC)c1 as the molecule, how does the “hERG current change (%, negative = inhibition) at 10uM” value read?
The value was -5.64%.

With Cc1ccc(NC(=O)C2CC(=O)N(Cc3ccco3)C2)cc1 (stereo not drawn) as the molecule, how does the “hERG current change (%, negative = inhibition) at 10uM” value read?
The value was 1.85%.

CCN(CC)c1ncc(C#N)c(N)n1 was tested. Which “hERG current change (%, negative = inhibition) at 10uM” value did it give?
Its value is 8.37%.

How did the “hERG current change (%, negative = inhibition) at 10uM” value turn out when O=C(CN1CCN(c2ccccn2)CC1)Nc1cccc(S(=O)(=O)N2CCOCC2)c1 was run?
The value was -12.3%.

How did the “hERG current change (%, negative = inhibition) at 10uM” value turn out when Cc1c(N(C)CS(=O)(=O)O)c(=O)n(-c2ccccc2)n1C.[Na] was run?
Its value is 16.5%.

How did the “hERG current change (%, negative = inhibition) at 10uM” value turn out when CCC(C)N1CCN(C(=O)Cc2ccccc2)CC1.O=C(O)C(=O)O (stereo not drawn) was run?
The value was 8.01%.

For O=C(/C=C/c1ccccc1)NCCS(=O)(=O)N1CCN(c2ccc(F)cc2)CC1, which “hERG current change (%, negative = inhibition) at 10uM” value is on record?
Its value is -30.7%.

For NC(=O)c1cnn2c(-c3cccc(C(F)(F)F)c3)ccnc12, which “hERG current change (%, negative = inhibition) at 10uM” value is on record?
Its value is -2.33%.

With COc1ccccc1OCC(=O)Nc1ccc2c(c1)OCO2 as the molecule, how does the “hERG current change (%, negative = inhibition) at 10uM” value read?
The value was 6.27%.

For Cc1cc(NCCc2ccc(Cl)cc2)n2ncnc2n1, which “hERG current change (%, negative = inhibition) at 10uM” value is on record?
The value was -39.1%.

Which “hERG current change (%, negative = inhibition) at 10uM” value does the source give for CCCOc1ccc(N2C(=O)CC(SC(=NCC)NCC)C2=O)cc1 (stereo not drawn) here?
Its value is 11.9%.

CC(OC(=O)CN1C(=O)NC2(CCCC2)C1=O)C(=O)Nc1cccc(Cl)c1Cl (stereo not drawn) was tested. Which “hERG current change (%, negative = inhibition) at 10uM” value did it give?
Its value is 1.75%.

With CSc1nnnn1-c1c(C)cc(C)cc1C as the molecule, how does the “hERG current change (%, negative = inhibition) at 10uM” value read?
The value was 5.83%.

With COCc1nnc(NC(=O)CC(c2ccccc2)c2ccccc2)s1 as the molecule, how does the “hERG current change (%, negative = inhibition) at 10uM” value read?
The value was 7.91%.

Cc1ccccc1OCCn1cc(C(=O)C(=O)N2CCOCC2)c2ccccc21 was tested. Which “hERG current change (%, negative = inhibition) at 10uM” value did it give?
The value was -6.7%.

For CN1CCN(CCCCOc2ccc(F)cc2)CC1, which “hERG current change (%, negative = inhibition) at 10uM” value is on record?
Its value is 0.265%.

How did the “hERG current change (%, negative = inhibition) at 10uM” value turn out when Cc1ccc(NC(=O)C(C)c2cccc(C(=O)c3ccccc3)c2)cc1 (stereo not drawn) was run?
The value was -5.39%.

How did the “hERG current change (%, negative = inhibition) at 10uM” value turn out when Oc1ccc2ccccc2c1C=NC1CCCCC1 was run?
Its value is 10.4%.

CCC(Sc1nc(N)c(NC(=O)c2ccco2)c(=O)[nH]1)C(=O)O (stereo not drawn) was tested. Which “hERG current change (%, negative = inhibition) at 10uM” value did it give?
Its value is 8.16%.

Cc1c(C(=O)N(Cc2ccccc2)Cc2cccnc2)cnn1-c1ccc(F)cc1 was tested. Which “hERG current change (%, negative = inhibition) at 10uM” value did it give?
Its value is -43.9%.

O=S(=O)(CCN1CCOCC1)c1ccc(Oc2ccc(S(=O)(=O)CCN3CCOCC3)cc2)cc1 was tested. Which “hERG current change (%, negative = inhibition) at 10uM” value did it give?
Its value is 10%.

COc1cc(C2/C(=C(\O)c3ccc4c(c3)OCCO4)C(=O)C(=O)N2CCN2CCOCC2)cc(OC)c1OC (stereo not drawn) was tested. Which “hERG current change (%, negative = inhibition) at 10uM” value did it give?
Its value is 18.2%.

Which “hERG current change (%, negative = inhibition) at 10uM” value does the source give for CCc1cc2c3c([nH]c2cc1S(=O)(=O)NCCCOC)CC(C)(C)CC3=O here?
Its value is 6.76%.

For COc1ccccc1NC(=O)Nc1nc(C(C)(C)C)cs1, which “hERG current change (%, negative = inhibition) at 10uM” value is on record?
Its value is 15.5%.

How did the “hERG current change (%, negative = inhibition) at 10uM” value turn out when CS(=O)(=O)N1N=C(c2ccc(Br)cc2)CC1c1ccc2c(c1)OCO2 (stereo not drawn) was run?
Its value is -3.15%.

With Cc1cc(C)cc(C(=O)NC2CC(C)(C)NC(C)(C)C2)c1 as the molecule, how does the “hERG current change (%, negative = inhibition) at 10uM” value read?
The value was 2.93%.

How did the “hERG current change (%, negative = inhibition) at 10uM” value turn out when COc1ccc(NC(=O)Cn2cnc3ccccc3c2=O)cc1OC was run?
The value was 34.3%.

CCCCNC(=O)CC(NS(=O)(=O)c1ccc(C)cc1)c1ccco1 (stereo not drawn) was tested. Which “hERG current change (%, negative = inhibition) at 10uM” value did it give?
The value was 4.82%.

Which “hERG current change (%, negative = inhibition) at 10uM” value does the source give for Cc1ccc(O)c(C(=O)c2cc(C#N)c3nc4ccccc4n3c2)c1 here?
The value was 19.9%.

For Cc1ccc(NC(=O)Cc2c(O)c3ccccc3[nH]c2=O)c(C)c1, which “hERG current change (%, negative = inhibition) at 10uM” value is on record?
The value was -1.34%.

For Cc1ccccc1NC(=O)COc1ccc(Br)cc1CNCCCO.Cl, which “hERG current change (%, negative = inhibition) at 10uM” value is on record?
Its value is -15.6%.

Which “hERG current change (%, negative = inhibition) at 10uM” value does the source give for COc1ccc(CN2CCCC(C(=O)c3cccc(OC(C)C)c3)C2)cc1Cn1cccn1 (stereo not drawn) here?
The value was -69.9%.

For COc1ccccc1N1CCN(C(=O)CSc2ncccc2-c2nc3ccccc3[nH]2)CC1, which “hERG current change (%, negative = inhibition) at 10uM” value is on record?
The value was -23.7%.

How did the “hERG current change (%, negative = inhibition) at 10uM” value turn out when CN(C)C(=O)NCc1ccc(S(N)(=O)=O)cc1 was run?
The value was 12.7%.

Which “hERG current change (%, negative = inhibition) at 10uM” value does the source give for CC1=C(C)C(=O)N(C(C)CCc2ccccc2)C1=O (stereo not drawn) here?
The value was 4.9%.

How did the “hERG current change (%, negative = inhibition) at 10uM” value turn out when O=[N+]([O-])c1cccc(Cl)c1N1CCOCC1 was run?
The value was -3.01%.
